Among the data in the supplement of paper PMC4604168 (melanoma cell lines) are cell count values, retold here.

Some of the results follow. Many values rest on one well or one pass, so single values are uncertain.
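Also: cells treated in 1,536-well plates, then fixed and DAPI-stained, with nuclei counted from automated high-throughput microscope images.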

The test system of the assay is LOXIMVI. Kind of assay: cell count relative to DMSO control; melanoma cells; higher = more viable cells. The conditions noted are these: library dose: standard library concentration; 72 h.
For the molecule `Cc1cc(Nc2cc(N3CCN(C)CC3)nc(Sc3ccc(NC(=O)C4CC4)cc3)n2)n[nH]1` [Tozasertib] + C#Cc1cccc(Nc2ncnc3cc(OCCOC)c(OCCOC)cc23)c1 [erlotinib] (first compound 0.03 µM, partner dose 4 µM), the cell count came to 100%.

Consider `Cc1cc(Nc2cc(N3CCN(C)CC3)nc(Sc3ccc(NC(=O)C4CC4)cc3)n2)n[nH]1` [Tozasertib] + COc1cc(N2CCC(N3CCN(C)CC3)CC2)ccc1Nc1ncc(Cl)c(Nc2ccccc2S(=O)(=O)C(C)C)n1 [NVP-TAE684] (first compound 0.03 µM, partner dose 0.4 µM), for which the cell count is 93.5%.

`CC[C@]1(O)C[C@H]2CN(CCc3c([nH]c4ccccc34)[C@@](C(=O)OC)(c3cc4c(cc3OC)N(C=O)[C@H]3[C@@](O)(C(=O)OC)[C@H](OC(C)=O)[C@]5(CC)C=CCN6CC[C@]43[C@@H]65)C2)C1` [vincristine] + CCc1ccc(CCOc2ccc(CC3SC(=O)NC3=O)cc2)nc1 [pioglitazone] (first compound 0.0005 µM, partner dose 10 µM) returned a cell count of 52.2%.

Turning to `Cc1cc(Nc2cc(N3CCN(C)CC3)nc(Sc3ccc(NC(=O)C4CC4)cc3)n2)n[nH]1` [Tozasertib] + COc1cc(Nc2ncc(F)c(Nc3ccc4c(n3)NC(=O)C(C)(C)O4)n2)cc(OC)c1OC [Tamatinib] (first compound 0.03 µM, partner dose 2 µM), the cell count turned out to be 39.5%.

Regarding `Cc1cc(Nc2cc(N3CCN(C)CC3)nc(Sc3ccc(NC(=O)C4CC4)cc3)n2)n[nH]1` [Tozasertib] + C[C@@H](Oc1cc(-c2cnn(C3CCNCC3)c2)cnc1N)c1c(Cl)ccc(F)c1Cl [Crizotinib] (first compound 0.03 µM, partner dose 1 µM), the cell count turned out to be 126%.

For the molecule `CC[C@]1(O)C[C@H]2CN(CCc3c([nH]c4ccccc34)[C@@](C(=O)OC)(c3cc4c(cc3OC)N(C=O)[C@H]3[C@@](O)(C(=O)OC)[C@H](OC(C)=O)[C@]5(CC)C=CCN6CC[C@]43[C@@H]65)C2)C1` [vincristine] + CN(NC(=O)CC(=O)NN(C)C(=S)c1ccccc1)C(=S)c1ccccc1 [STA4783] (first compound 0.0005 µM, partner dose 0.03 µM), the cell count was determined as 57.9%.

As to `CC[C@]1(O)C[C@H]2CN(CCc3c([nH]c4ccccc34)[C@@](C(=O)OC)(c3cc4c(cc3OC)N(C=O)[C@H]3[C@@](O)(C(=O)OC)[C@H](OC(C)=O)[C@]5(CC)C=CCN6CC[C@]43[C@@H]65)C2)C1` [vincristine] + NC1(c2ccc(-c3nc4ccn5c(=O)[nH]nc5c4cc3-c3ccccc3)cc2)CCC1 [MK2206] (first compound 0.0005 µM, partner dose 2 µM), the cell count turned out to be 61.3%.

`CC[C@]1(O)C[C@H]2CN(CCc3c([nH]c4ccccc34)[C@@](C(=O)OC)(c3cc4c(cc3OC)N(C=O)[C@H]3[C@@](O)(C(=O)OC)[C@H](OC(C)=O)[C@]5(CC)C=CCN6CC[C@]43[C@@H]65)C2)C1` [vincristine] + O=C(O)c1ccc(-c2c[nH]c3ncc(-c4ccccc4)cc23)cc1C1CCCC1 [GSK650394] (first compound 0.0005 µM, partner dose 0.8 µM) displayed a cell count of 88.8%.

The molecule `CC[C@]1(O)C[C@H]2CN(CCc3c([nH]c4ccccc34)[C@@](C(=O)OC)(c3cc4c(cc3OC)N(C=O)[C@H]3[C@@](O)(C(=O)OC)[C@H](OC(C)=O)[C@]5(CC)C=CCN6CC[C@]43[C@@H]65)C2)C1` [vincristine] + COc1ccc(C2=N[C@@H](c3ccc(Cl)cc3)[C@@H](c3ccc(Cl)cc3)N2C(=O)N2CCNC(=O)C2)c(OC(C)C)c1 [Nutlin-3] (first compound 0.0005 µM, partner dose 0.5 µM) registered a cell count of 56.8%.

`N#CC[C@H](C1CCCC1)n1cc(-c2ncnc3[nH]ccc23)cn1` [ruxolitinib] + CC(=O)c1c(C)c2cnc(Nc3ccc(N4CCNCC4)cn3)nc2n(C2CCCC2)c1=O [palbociclib] (first compound 5 µM, partner dose 0.2 µM) came in with a cell count of 70.1%.
